Laboratory results from PubChem BioAssay AID463173 (ICCB-Longwood Screening Facility, Harvard Medical School, 2010).
Among all 52,000 compounds or so, about 4,300 (8.3%) were called active. Rule as the data show it: active = survival mostly below about 52% (no sharp cut-off); inactive = mostly above about 56%. Some of the results follow.

Test system: DeltatarO mutant
Assay: growth inhibition of S. aureus wild type versus tarO mutant, primary screen, teichoic acid synthesis inhibitors, RN4220, OD600 (AID 463173)
Conditions: OD600, 18 h, active compounds read low, screened at 18.75 µg/mL (by protocol)

| SMILES | survival |
| --- | --- |
| CCn1cc(C(=O)NCCCN(CC(C)C)CC(C)C)c(=O)c2cc(S(=O)(=O)N3CCc4ccccc4C3)ccc21 | inactive: 89% |
| Cc1ccc(-c2nnc(SCC(=O)NCCC(C)C)nc2-c2ccc(C)cc2)cc1 | inactive: 104% |
| COc1cccc(C2=NS(=O)(=O)N(C)C(C(=O)Nc3cccc(O)c3)=C2)c1 | inactive: 70% |
| COc1ccc(CC(=O)Nc2ccc(-c3nc4ccccc4s3)cc2Cl)cc1 | inactive: 69% |
| COc1ccc(Cl)cc1NC(=O)CSc1nnc(C)n2c1cc1occc12 | inactive: 50% |
| Cc1cc(NC(=O)C2C3C(=O)N(c4ccccc4Cl)C(C(=O)NC(C)(C)C)C34C=CC2(C)O4)no1 (stereo unspecified) | inactive: 108% |
| CCN(CC)CCCN1C(=O)C2C3C=CC(C3)C2C1=O (stereo unspecified) | inactive: 103% |
| COC(=O)c1cccc(NC(=O)COC(=O)c2ccco2)c1 | inactive: 75% |
| O=S(=O)(NCCc1csc(-c2ccc(F)cc2)n1)c1ccc(F)cc1F | inactive: 87% |
| COc1ccc(N2CC(NC(=O)c3cccs3)CC2=O)cc1OC (stereo unspecified) | inactive: 89% |
| COc1ccc(-n2ncc(C(=O)Nc3ccc(C)cc3Cl)c2C2CCN(C(=O)OC(C)(C)C)CC2)cc1 | inactive: 83% |
| CCCCn1c(SCC(=O)Nc2ccccc2)nc2ccccc2c1=O | inactive: 94% |
| CCc1ccc(-c2[nH]c3c(c2-c2c(-n4cccc4)n(C)c(=O)[nH]c2=O)c(=O)[nH]c(=O)n3C)cc1 | inactive: 65% |
| O=C(Nc1nnc(S(=O)(=O)N2CCCCC2)s1)c1ccc(Cl)cc1 | active: 37% |
| CC(=O)Nc1ccc(NS(=O)(=O)c2ccc3c(c2)CCCN3C(C)=O)cc1 | inactive: 87% |
| COc1ccc(S(=O)(=O)NCC(c2ccco2)S(=O)(=O)c2ccc(C)cc2)cc1C (stereo unspecified) | inactive: 103% |
| CCOc1ccc(NC(=O)CSc2nnc(CC)c(CC)n2)cc1 | inactive: 85% |
| CCN(CC)CCNC(=O)C1CCCN(c2nnc(C)c3c(C)n(-c4ccc(Cl)cc4)nc23)C1 (stereo unspecified) | inactive: 113% |
| CCN(CC)C(=O)CSc1nnc(COc2ccc(Br)cc2)o1 | inactive: 108% |
| O=C(NCC1CCCO1)c1cccc(C(=O)NCC2CCCO2)c1 (stereo unspecified) | inactive: 100% |
| Cc1cccc(C)c1NC(=O)C1CCCN(S(=O)(=O)c2c(C)noc2/C=C/N(C)C)C1 (stereo unspecified) | inactive: 92% |
| Cc1cc(C=C(C#N)C#N)c(C)n1-c1ccc(S(N)(=O)=O)cc1 | inactive: 97% |
| COc1ccccc1CNC(=O)c1ccc(NC(=O)N2CC(C)Sc3ccccc32)cc1 (stereo unspecified) | inactive: 66% |

| SMILES | survival |
| --- | --- |
| CCc1ccc(NC(=O)C(Cc2ccccc2)NS(=O)(=O)c2ccc3c(c2)CCN3C(C)=O)cc1 (stereo unspecified) | inactive: 80% |
| Cc1cc(C)c(NC(=O)c2cc(CN3CCOCC3)on2)c(C)c1 | inactive: 70% |
| COc1ccc2cc(S(=O)(=O)c3ccccc3F)c(=O)oc2c1 | inactive: 89% |
| C=CC(=O)NCC1OCCc2ccccc21 (stereo unspecified) | inactive: 112% |
| CCOc1ccc(Sc2cc(C(=O)NCCCOC)c3ccccc3n2)cc1 | inactive: 93% |
| CCOC(=O)c1cc(-c2ccc(C)cc2)n(CCC(=O)NCc2ccccc2)c1C | inactive: 108% |
| Cc1cccc(OCC(=O)Nc2ccc(C(=O)OCc3cc(=O)n4nc(C5CC5)sc4n3)cc2)c1 | active: -2% |
| COC(=O)c1ccc(NC(=O)CSc2ccc(-c3cccs3)nn2)cc1 | inactive: 85% |
| Cc1ccc(-c2noc(-c3cccnc3NCc3ccc(Cl)cc3)n2)cc1 | inactive: 55% |
| Cc1ccc(-c2nc3scc(CCNS(=O)(=O)c4ccc(C)c(C)c4)n3n2)cc1 | inactive: 79% |
| O=C(NCCc1nc2ccccc2n1CCOc1ccc(Cl)cc1)C1CCCCC1 | active: 36% |
| COc1ccccc1CNC(=O)Cn1c(=O)oc2ccccc21 | inactive: 71% |
| Cc1nn(-c2nc3ccccc3[nH]2)c(N)c1-c1ccccc1 | active: 2% |
| O=C(CSc1nc2c(c(=O)[nH]1)CCCC2)Nc1cccc(O)c1 | inactive: 68% |
| CCCCn1c(SCC(=O)N2CCCCCC2)nnc1-c1ccoc1C | inactive: 77% |
| COc1cc2[nH]c(=O)n(CCCC(=O)NCc3ccccc3Cl)c(=O)c2cc1OC | inactive: 77% |
| COCCCNC(=O)C1CCN(c2nnc(-n3cccc3CNc3ccc(C)cc3)s2)CC1 | inactive: 58% |
| Cc1cc(OCCn2c(C3CC(=O)N(Cc4ccc(F)cc4)C3)nc3ccccc32)ccc1Cl (stereo unspecified) | active: 1% |
| O=C(Cn1c(=O)oc2ccccc21)NCc1ccccc1Cl | inactive: 96% |
| O=C(CSc1nc(-c2ccco2)nc2cc(=O)[nH]n12)Nc1ccccc1Cl | inactive: 73% |
| COC(=O)C1=C(C)C(c2ccccc2OC)NC(=O)N1 (stereo unspecified) | inactive: 85% |
| CCOc1ccc2ncc3c(-c4ccccc4)nn(CC(=O)Nc4cccc(F)c4)c3c2c1 | inactive: 92% |
| COc1ccc(-n2c(-c3ccc(F)cc3)cn3c4c(=O)n(C)c(=O)n(C)c4nc23)cc1 | inactive: 72% |

| SMILES | survival |
| --- | --- |
| Cc1ccc(C)c(N2CCN(CCCNC(=O)Cn3c(-c4cccs4)cc4ccccc43)CC2)c1 | inactive: 72% |
| Cc1cc(=O)n2c(C(=O)Nc3ccc(C)c(C)c3)c(C(=O)Nc3ccccc3)sc2n1 | inactive: 52% |
| CN(C)c1ccc(CNc2nc(-c3ccco3)nn2S(=O)(=O)c2ccc(Cl)cc2)cc1 | inactive: 98% |
| CC1CCCCC1NC(=O)CSc1nccc(=O)[nH]1 (stereo unspecified) | inactive: 69% |
| NC(=O)C1CCCN1S(=O)(=O)c1ccc(F)cc1 (stereo unspecified) | inactive: 59% |
| CCN(C(=O)CSc1nnc(-c2ccc(Cl)cc2)o1)c1ccccc1 | inactive: 61% |
| CCc1cccc(C)c1NC(=O)C1CCCN(S(=O)(=O)c2cccc3nsnc23)C1 (stereo unspecified) | inactive: 89% |
| COC(=O)c1ccccc1NC(=O)CSc1nc2sc3c(c2c(=O)[nH]1)CCCC3 | inactive: 61% |
| O=C(CN1C(=O)C2CCCCN2c2ccc(C(=O)N3CCCC3)cc21)NCc1ccccc1 (stereo unspecified) | inactive: 91% |
| COCCCNC(=O)Cn1c(=O)n(-c2cccc(C)c2)c(=O)c2c3c(sc21)CN(C(C)=O)CC3 | inactive: 72% |
| CCCCn1c(CCNC(=O)c2ccc(F)cc2)nc2ccccc21 | inactive: 68% |
| COc1ccccc1CNc1nc(-c2ccco2)nn1C(=O)c1ccccc1[N+](=O)[O-] | inactive: 62% |
| c1ccc(CCNc2ccccc2)cc1 | inactive: 84% |
| COc1cccc(CNC(=O)Cn2cc3c(n2)-c2c(oc(C(=O)N4CCOCC4)c2C)CC3)c1 | inactive: 74% |
| COc1ccc(S(=O)(=O)N2Cc3ccccc3CC2C(=O)Nc2cccc(C)c2)cc1OC (stereo unspecified) | inactive: 71% |
| CCOC(=O)c1sc(NC(=O)c2nc(SCC)ncc2Cl)c(C(=O)OCC)c1C | inactive: 115% |
| CN(C)CCNC(=O)Cc1ccc(NC(=O)N2CCCCc3ccccc32)cc1 | inactive: 86% |
| Cc1nn(Cc2ccccc2)c(C)c1NC(=O)c1cc(C(C)C)on1 | inactive: 56% |
| CC(Sc1nnc(-c2ccc3c(c2)OCO3)o1)C(N)=O (stereo unspecified) | inactive: 96% |
| Cc1ccc(C(=O)c2cn(Cc3ccc(F)cc3)c3nc(C)ccc3c2=O)cc1 | inactive: 85% |
| COc1ccc(Cl)cc1NC(=O)c1c(C(=O)Nc2cccc(C)c2C)sc2nc(C)cc(=O)n12 | inactive: 74% |
| CCOC(=O)c1cc(-c2ccc(C)cc2)n(CC(=O)Nc2cccc(C(C)=O)c2)c1C | inactive: 94% |
| CNCCCc1cc(C)ccc1O | inactive: 59% |

| SMILES | survival |
| --- | --- |
| COC(=O)c1ccc(CSc2nc3c([nH]c4ccccc43)c(=O)n2-c2cccc(OC)c2)o1 | inactive: 55% |
| COc1ccc(-c2nc3ccccc3o2)cc1NC(=O)c1ccc(N2CCC(C)CC2)c([N+](=O)[O-])c1 | inactive: 66% |
| COc1ccc(CNC(=O)c2cc3c(=O)n(Cc4cccs4)ccc3nc2C)cc1 | active: 37% |
| COc1ccccc1N1CCN(C(=O)CCSCc2ccccc2F)CC1 | inactive: 95% |
| Cc1oc(-c2ccccc2F)nc1Cn1c(SCc2ccccc2F)nc2ccncc21 | inactive: 68% |
| Cc1ccccc1OCc1nc2c3cnn(-c4ccccc4Br)c3ncn2n1 | inactive: 70% |
| COc1ccc(Nc2oc(/C=C/c3ccc(F)cc3)nc2C#N)cc1 | inactive: 93% |
| COc1ccc(OCc2nnc(SCC(=O)N3C(C)CCCC3C)o2)cc1 (stereo unspecified) | inactive: 87% |
| COCCCn1c(=N)c(S(=O)(=O)c2ccccc2)cc2c(=O)n3cccc(C)c3nc21 | inactive: 77% |
| COc1ccccc1OCC(O)CN1CCOCC1 (stereo unspecified) | inactive: 95% |
| CC1(C)CC(=O)c2cc(C(=O)Nc3ccc(Br)cc3)c(=O)n(-c3ccc(Cl)cc3)c2C1 | active: 42% |
| O=C(O)CN1C(=O)/C(=C\c2ccccc2)SC1=S | inactive: 91% |
| COc1ccc(CCNC(=O)c2cc3c(=O)n(C)c4cc(Cl)ccc4c3s2)cc1OC | inactive: 80% |
| COc1ccc(-c2[nH]c(-c3ccccc3)nc2SCC(=O)NC2CCCC2)cc1 | inactive: 67% |
| CCN1C(=O)c2ccccc2Sc2ccc(NC(=O)Nc3ccc(Br)c(C)c3)cc21 | inactive: 71% |
| COc1ccc(-c2cc(NCc3ccc(C)cc3)n3cnnc3n2)cc1 | inactive: 83% |
| COc1ccc(Nc2nc(N)nc(CSc3nc4ccccc4s3)n2)cc1 | active: 21% |
| COc1cccc(NC(=O)C(=O)NCCc2sc(-c3cccc(C)c3)nc2C)c1 | inactive: 120% |
| O=S1(=O)c2ccccc2N(Cc2ccccc2Cl)c2ccccc21 | inactive: 99% |
| COc1ccc(CCNc2nc(SCc3ccccc3Cl)nc3ccccc23)cc1OC | inactive: 102% |
| CCOC(=O)c1ccc(N2C(=O)c3[nH]nc(-c4ccccc4)c3C2c2cccs2)cc1 (stereo unspecified) | inactive: 123% |
| COc1ccc(NC(=O)Cn2c(=O)n(CCc3ccccc3)c(=O)c3sc4ccccc4c32)cc1 | inactive: 76% |
